The supplement of paper PMC10670038
Counter-ions that a name gives are not always drawn. ± gives the standard deviation of the averaged measurements. The full ranking holds about 2,000 compounds; the median of “relative cell viability vs DMSO, compound + 0.2 uM CuET” is about 1, and the lowest 2% start at about 0.25. The list shows a part of the results.

Test system: TE10
Assay: relative cell viability vs DMSO, compound + 0.2 uM CuET (fraction); TE10 is an esophageal squamous carcinoma line; higher = less cytotoxic
Settings: 2 µM; co-treatment: CuET (bis(diethyldithiocarbamate)copper) 0.2 uM; 48 h
Protocol: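 TE10 ESCC cells (1,000/well, 384-well plates) were treated with Selleck bioactive library compounds at 2 uM combined with 0.2 uM CuET (copper diethyldithiocarbamate) for 48 h. Viability was read by CellTiter-Glo and expressed relative to DMSO wells. Two technical replicates (A, B).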

Compared with Cc1cc(C)c(Nc2ccnc(Nc3ccc(C#N)cc3)n2)c(C)c1 [Dapivirine (TMC120)], Cc1cc(C)c(-c2csc(NC(=O)c3ccccc3)n2)c(C)c1 is higher in relative cell viability: 0.968 ± 0.056 for the first, 1.17 ± 0.069 for the second.

Compared with Cc1cc(/C=C2/SC(=S)NC2=O)c(C)n1-c1cccnc1 [Optovin], CC(C)c1cc(-c2n[nH]c(=O)n2-c2ccc3c(ccn3C)c2)c(O)cc1O [Ganetespib (STA-9090)] is lower in relative cell viability: 1.34 ± 0.095 for the first, 0.793 ± 0.17 for the second.

Compared with O=C(c1ccc(Nc2nccc(-c3cc4ccccc4s3)n2)cc1)N1CCC(N2CCCC2)CC1 [IKK-16 (IKK Inhibitor VII)], O=C(O)c1ccc(-c2c[nH]c3ncc(-c4ccccc4)cc23)cc1C1CCCC1 is higher in relative cell viability: 0.568 ± 0.038 for the first, 1.029 ± 0.0056 for the second.

Clc1ccc(CSC(Cn2ccnc2)c2ccc(Cl)cc2Cl)cc1 (stereo unspecified) [Sulconazole Nitrate] and CN(C)CC/C=C1/c2ccccc2Sc2ccc(Cl)cc21 [Chlorprothixene] are within error of each other in relative cell viability: 0.963 ± 0.027 for the first, 0.948 ± 0.074 for the second.

Going from Nc1ncnc2c1ncn2[C@@H]1O[C@H](CO)[C@@H](O)[C@H]1O [Adenosine] to CC(C)n1nc(-c2ccc3oc(N)nc3c2)c2c(N)ncnc21, the relative cell viability falls from 1.33 ± 0.099 to 0.494 ± 0.14.

CC1(C)CCC(C)(C)c2cc(NC(=O)c3ccc(C(=O)O)cc3)ccc21 [Tamibarotene] and N=C(N)Nc1ccc(C(=O)Oc2ccc3cc(C(=N)N)ccc3c2)cc1 [Nafamostat Mesylate] are within error of each other in relative cell viability: 1.03 ± 0.025 for the first, 0.781 ± 0.23 for the second.

Going from N[C@@H](Cc1cc(I)c(Oc2cc(I)c(O)c(I)c2)c(I)c1)C(=O)O [L-Thyroxine] to N[C@@H](Cc1c[nH]c2ccc(O)cc12)C(=O)O [5-hydroxytryptophan (5-HTP)], the relative cell viability rises from 1.08 ± 0.046 to 1.22 ± 0.064.

Compared with COc1cc(C(=O)O)ccc1NC(=O)[C@@H]1N[C@@H](CC(C)(C)C)[C@](C#N)(c2ccc(Cl)cc2F)[C@H]1c1cccc(Cl)c1F [Idasanutlin (RG-7388)], CCNC(=O)c1[nH]nc(-c2cc(Cl)c(O)cc2O)c1-c1ccc(OC)cc1 is lower in relative cell viability: 0.918 ± 0.1 for the first, 0.591 ± 0.052 for the second.

Compared with O=C(O)C(O)Cc1ccc(O)c(O)c1 (stereo unspecified) [Sodium Danshensu], O=C(O)/C=C/c1ccc(O)c(O)c1 [Caffeic Acid] is higher in relative cell viability: 0.918 ± 0.068 for the first, 1.1 ± 0.031 for the second.

First: Oc1ccc(OC2CCCCO2)cc1 (stereo unspecified) [Deoxyarbutin]
Second: CC(C)NCC(O)COc1ccc(CCOCC2CC2)cc1 (stereo unspecified) [Betaxolol hydrochloride (Betoptic)]
The relative cell viability of the first is higher: 1.31 ± 0.072 for the first, 0.996 ± 0.13 for the second.

Going from Nc1cccc2c1C(=O)N(C1CCC(=O)NC1=O)C2=O (stereo unspecified) [Pomalidomide] to Nc1nc(NC2CC2)cc(-c2cccc(Cl)c2Cl)n1, the relative cell viability falls from 1.15 ± 0.096 to 0.866 ± 0.047.

Compared with CCOC(=O)CCNc1cc(N2CCc3ccccc3CC2)nc(-c2ccccn2)n1, O=C(NCC1(c2nc(-c3ccccc3)cs2)CCOCC1)c1cccc(-c2noc(C(F)(F)F)n2)c1 is higher in relative cell viability: 0.349 ± 0.041 for the first, 1.05 ± 0.092 for the second.

Compared with COc1ccc2[nH]c([S+]([O-])Cc3ncc(C)c(OC)c3C)nc2n1 (stereo unspecified) [Tenatoprazole], Cc1cccc(-c2[nH]c(C(C)(C)C)nc2-c2ccc3c(c2)OCO3)n1 is lower in relative cell viability: 1.21 ± 0.042 for the first, 0.8195 ± 0.0064 for the second.

Cc1cc(=O)oc2c(C=O)c(O)ccc12 and COc1ccc2ccc(=O)oc2c1CC=C(C)C [Osthole] are within error of each other in relative cell viability: 1.24 ± 0.086 for the first, 1.09 ± 0.086 for the second.

Going from CN(C)CCOC(c1ccccc1)c1ccccc1 [Diphenhydramine HCl] to CC(C)(OCc1nn(Cc2ccccc2)c2ccccc12)C(=O)O [Bindarit], the relative cell viability rises from 1.069 ± 0.00099 to 1.28 ± 0.15.

First: Cn1cc(CNCC2CCN(c3ncc(C(=O)NO)cn3)CC2)c2ccccc21
Second: C=CC(=O)Nc1cc(Nc2nccc(-c3cn(C)c4ccccc34)n2)c(OC)cc1N(C)CCN(C)C
The relative cell viability of the first is lower: 0.171 ± 0.017 for the first, 0.529 ± 0.063 for the second.

CC(=O)[C@H]1CC[C@H]2[C@@H]3CCC4=CC(=O)CC[C@]4(C)[C@H]3CC[C@]12C [Progesterone] and C[C@]12CC[C@@H]3c4ccc(O)cc4CC[C@H]3[C@@H]1CC[C@@H]2O [Estradiol] are the same in relative cell viability: 1.07 ± 0.083 for the first, 1.07 ± 0.034 for the second.

CCCN(CCC)S(=O)(=O)c1ccc(C(=O)O)cc1 [Probenecid] and N=C(N)NS(=O)(=O)c1ccc(N)cc1 [Sulfaguanidine] are within error of each other in relative cell viability: 1.15 ± 0.099 for the first, 1.23 ± 0.043 for the second.

CCNC(=O)Nc1ccc(-c2nc3c(c(N4CCOC[C@@H]4C)n2)CCN(C2COC2)C3)cc1 and O=C(Nc1nc2cccc(-c3ccc(CN4CCS(=O)(=O)CC4)cc3)n2n1)C1CC1 [Filgotinib (GLPG0634)] are within error of each other in relative cell viability: 0.919 ± 0.08 for the first, 0.966 ± 0.049 for the second.

Going from CC(NC(=O)Cc1cc(F)cc(F)c1)C(=O)NC(C(=O)OC(C)(C)C)c1ccccc1 (stereo unspecified) to O=C(NO)c1cccc(C(=O)NCCc2ccccc2)c1, the relative cell viability rises from 1.23 ± 0.04 to 1.32 ± 0.041.

Compared with C[C@H](NC(=O)/C(C#N)=C/c1cccc(Br)n1)c1ccccc1, CC(NC(=O)c1ccccc1/N=C/c1c(O)ccc2ccccc12)c1ccccc1 (stereo unspecified) [Sirtinol] is higher in relative cell viability: 0.314 ± 0.032 for the first, 1.05 ± 0.086 for the second.

CC(C)c1ccc(NC(=O)Cn2cnc3c2c(=O)n(C)c(=O)n3C)cc1 and CCN(C(=O)c1c(O)c2c(Cl)cccc2n(C)c1=O)c1ccccc1 [Laquinimod] are within error of each other in relative cell viability: 1.04 ± 0.12 for the first, 1.05 ± 0.13 for the second.

Compared with CCC(CC)n1ccc2c(C(=O)NCc3c(C)cc(C)[nH]c3=O)cc(C#N)cc21, CCc1c2c(nc3ccc(O)cc13)-c1cc3c(c(=O)n1C2)COC(=O)[C@]3(O)CC is lower in relative cell viability: 1.27 ± 0.092 for the first, 0.441 ± 0.02 for the second.

First: C=CC(=O)Nc1cc(Nc2nccc(-c3c[nH]c4ccccc34)n2)c(OC)cc1N(C)CCN(C)C
Second: C=CC(=O)Nc1cccc(Nc2nc(Nc3ccc(Oc4ccnc(C(=O)NC)c4)cc3)ncc2F)c1
The relative cell viability of the first is lower: 0.476 ± 0.0093 for the first, 0.79 ± 0.053 for the second.

First: Cc1ccc(NCCCc2ccccc2)c(N)c1
Second: Cc1[nH]c2ccccc2c1C1=C(NCCc2ccc(F)cc2)C(=O)N(C)C1=O
The relative cell viability of the first is lower: 1.06 ± 0.024 for the first, 1.17 ± 0.023 for the second.

C#Cc1cccc(Nc2ncnc3cc4c(cc23)OCCOCCOCCO4)c1 [Icotinib] and CN1CC(=O)N2[C@H](c3ccc4c(c3)OCO4)c3[nH]c4ccccc4c3C[C@@H]2C1=O [Tadalafil] are within error of each other in relative cell viability: 0.983 ± 0.25 for the first, 1.14 ± 0.064 for the second.

Cc1ncc(CO)c(CO)c1O [Pyridoxine HCl] and CN1c2cc(O)c(N=NC(N)=O)cc2CC1S(=O)(=O)O (stereo unspecified) [Carbazochrome sodium sulfonate (AC-17)] are within error of each other in relative cell viability: 1.04 ± 0.16 for the first, 0.884 ± 0.033 for the second.

First: C[C@H](O)[C@H](O)[C@@H](O)[C@@H](O)C=O [L-(+)-Rhamnose Monohydrate]
Second: CC1=C(/C=C/C(C)=C/C=C/C(C)=C/C(=O)O)C(C)(C)CCC1 [Tretinoin]
The relative cell viability of the first is higher: 1.15 ± 0.046 for the first, 0.903 ± 0.066 for the second.

CC(=O)Oc1ccccc1C(=O)O [Aspirin] and O=C(O)c1cc(C(F)(F)F)ccc1N1CC[C@H](OCc2ccccn2)C1 are within error of each other in relative cell viability: 1.16 ± 0.095 for the first, 1.19 ± 0.033 for the second.

Compared with CNS(=O)(=O)CCc1ccc2[nH]cc(C3CCN(C)CC3)c2c1 [Naratriptan], CC1(C)CC(=O)c2c(C(F)(F)F)nn(-c3ccc(C(N)=O)c(N[C@H]4CC[C@H](O)CC4)c3)c2C1 is lower in relative cell viability: 1.2 ± 0.1 for the first, 0.802 ± 0.12 for the second.

C[C@]12CC[C@H](O)CC1=CC[C@@H]1[C@@H]2CC[C@]2(C)C(n3cnc4ccccc43)=CC[C@@H]12 [Galeterone] and CCOC(=O)O[C@]1(C(=O)OCCl)CC[C@H]2[C@@H]3CCC4=CC(=O)C=C[C@]4(C)[C@H]3[C@@H](O)C[C@@]21C [Loteprednol etabonate] are within error of each other in relative cell viability: 1.02 ± 0.058 for the first, 0.966 ± 0.041 for the second.

Compared with CC(=O)Nc1nc2c(Oc3cc(-c4ccc(C(F)(F)F)cc4)ncn3)cccc2s1, COc1ccc(-c2ccc3ncc4c(c3c2)n(-c2ccc(N3CCNCC3)c(C(F)(F)F)c2)c(=O)n4C)cn1 is lower in relative cell viability: 1.019 ± 0.0092 for the first, 0.104 ± 0.0046 for the second.

Compared with CCCCCOc1ccc(-c2cc(-c3ccc(C(=O)N[C@H]4C[C@@H](O)[C@@H](O)NC(=O)[C@@H]5[C@@H](O)[C@@H](C)CN5C(=O)[C@H]([C@H](O)CC(N)=O)NC(=O)[C@H]([C@H](O)[C@@H](O)c5ccc(O)c(OS(=O)(=O)O)c5)NC(=O)[C@@H]5C[C@@H](O)CN5C(=O)[C@H]([C@@H](C)O)NC4=O)cc3)no2)cc1 [Micafungin Sodium], CCOc1nc2cccc(C(=O)OCc3oc(=O)oc3C)c2n1Cc1ccc(-c2ccccc2-c2noc(=O)[nH]2)cc1 [Azilsartan Medoxomil] is higher in relative cell viability: 1.04 ± 0.014 for the first, 1.094 ± 0.0084 for the second.

Going from N#CSc1cc(SC#N)c(N)nc1N to CCc1nc(N)nc(N)c1-c1ccc(Cl)cc1 [Pyrimethamine], the relative cell viability rises from 0.612 ± 0.04 to 0.971 ± 0.015.

Oc1ccc2ccccc2c1SSc1c(O)ccc2ccccc12 and O=C(Nc1cccc2cccnc12)c1ccc(N2C(=O)C3C4C=CC(C4)C3C2=O)cc1 (stereo not drawn) [IWR-1-endo] are within error of each other in relative cell viability: 0.842 ± 0.1 for the first, 0.994 ± 0.1 for the second.

COc1cc2nc(N(C)CCCNC(=O)C3CCCO3)nc(N)c2cc1OC (stereo unspecified) [Alfuzosin HCl] and COc1cc(OC2CCN(C)CC2)ccc1Nc1ncc2c(n1)n(C1CCCC1)c(=O)n2C are within error of each other in relative cell viability: 1.24 ± 0.088 for the first, 1.22 ± 0.28 for the second.

Compared with CCCCc1nc2cc(/C=C/C(=O)NO)ccc2n1CCN(CC)CC [Pracinostat (SB939)], CCCN1CCCC[C@H]1C(=O)Nc1c(C)cccc1C [Ropivacaine HCl] is higher in relative cell viability: 0.2435 ± 0.00015 for the first, 1.04 ± 0.042 for the second.

CC(=O)O[C@]1(C(C)=O)CC[C@H]2[C@@H]3C=C(Cl)C4=CC(=O)[C@@H]5C[C@@H]5[C@]4(C)[C@H]3CC[C@@]21C [Cyproterone Acetate] and O=C(O)C(=O)O.[NH-][C@@H]1CCCC[C@H]1[NH-].[Pt+2] [Oxaliplatin] are within error of each other in relative cell viability: 1.03 ± 0.084 for the first, 1.0357 ± 0.00045 for the second.

Going from O=C(O)COCCN1CCN(C(c2ccccc2)c2ccc(Cl)cc2)CC1 (stereo unspecified) [Cetirizine DiHCl] to Cc1nn(-c2ccccc2)c(C)c1C=NN1CCN(Cc2ccccc2)CC1, the relative cell viability falls from 1.19 ± 0.0036 to 0.999 ± 0.091.

Compared with CCCSc1nc(N[C@@H]2C[C@H]2c2ccc(F)c(F)c2)c2nnn([C@@H]3C[C@H](OCCO)[C@@H](O)[C@H]3O)c2n1 [Ticagrelor], COc1ccc(NS(=O)(=O)c2sc3ccc(Cl)cc3c2C)cc1N1CCNCC1 is higher in relative cell viability: 0.99 ± 0.069 for the first, 1.31 ± 0.084 for the second.

For C#CCN[C@@H]1CCc2ccccc21 [Rasagiline Mesylate], the relative cell viability was 0.963 ± 0.029.
